# The full ranking holds about 33,000 sequences; the median of “E-score (-0.5 to 0.5)” is about -0.056, and the highest 2% start at about 0.38. Some of the results follow.
# Target: Stb4 (UniProt P50104)
# Test: PBM E-score (8-mer binding enrichment) (E-score (-0.5 to 0.5)); higher = stronger / more preferred TF binding; most listed sequences are background and not binding sites
# Conditions: protein concentration: 200 nM; construct: GST-DNA-binding domain
# Outline: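 Masliner-normalised scans of fluorescent anti-GST signal were the basis for scoring. That signal came from GST-tagged yeast transcription factors applied at about 100-200 nM to double-stranded universal all-10-mer Agilent arrays on fresh or once-stripped slides. Each ungapped eight-base word, pooled with its reverse complement, received an E-score from the Universal PBM Analysis Suite.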
row,Sequence,PBM E-score
1,AGCGTACC,-0.0116
2,CCCGAATC,0.397
3,TCGCCTCA,-0.0701
4,GTATGCGA,0.0265
5,CTCCGTTA,0.0713
6,AATCAATC,0.055
7,GATGTTAA,0.0159
8,ACAGATAA,-0.0723
9,ACGTGTAA,-0.0473
10,AAGCGCAG,0.0233
11,ATCCTCCC,0.203
12,CATTACCA,0.0238
13,AGGCGGGG,0.117
14,CAAGGACC,-0.0279
15,CCTTACTA,0.00726
16,ACACTGTA,-0.146
17,TCCCAGAA,-0.159
18,TCTCTCCA,-0.198
19,ATTATTTA,0.0973
20,ATATTCGA,0.0718
21,AAGCGGAC,0.118
22,CGAGAAAC,0.151
23,ATCGGGAG,0.367
24,ATTCGCTG,-0.112
25,AACCGCTT,-0.0152

row,Sequence,PBM E-score
1,GACCGCGC,0.033
2,ACAATGAG,-0.276
3,CCACGCTC,-0.108
4,ATCGACAC,-0.0716
5,ACGGTGAC,-0.103
6,CTTCACAA,-0.17
7,GCGAAGTA,-0.0361
8,CACGGTGG,-0.061
9,ACCGGGGC,0.16
10,CTGCCGAC,0.331
11,CAACCTGG,-0.192
12,CCCCGGAA,0.27
13,ACATAAAA,-0.217
14,AAATCAGA,-0.0451
15,CCTACCCC,-0.0168
16,ATCTTTCG,0.0575
17,AACAGTGG,0.0178
18,GATAGTAC,-0.0416
19,TACCATGA,-0.32
20,AGGGCCCG,0.205
21,GTCTTTCA,-0.00663
22,ACCAATCA,-0.0969
23,ACGTTTGC,-0.11
24,ACAGACAT,-0.0423
25,CAATTAGC,0.0579

row,Sequence,PBM E-score
1,CCGTCATA,0.218
2,ACACTTTA,-0.0241
3,CTGATAAG,-0.0785
4,ACTAACTC,-0.0493
5,ACGTCGAT,-0.177
6,CCCCCACA,-0.36
7,CCACGCCC,-0.0253
8,ACTTGTCT,-0.0919
9,AGACGGGA,0.174
10,ATTCTCCA,-0.107
11,ACCCCGCG,0.0917
12,CCCCCAAC,-0.271
13,GTAGCAGA,-0.187
14,AAGGAAGC,0.0477
15,TAGAACCA,-0.153
16,GACGCCAC,-0.108
17,ATCGGACC,0.308
18,AGAGGTGC,-0.0186
19,CTAGATGA,-0.231
20,CAGGCACA,-0.178
21,GAGGTTTA,0.0299
22,GTAATAAC,-0.0893
23,GTGCTGGA,-0.0798
24,ATGCCGGC,0.263
25,GCGACCGC,0.00901

row,Sequence,PBM E-score
1,ACGCTAAC,-0.0806
2,GCAAGATA,-0.171
3,CCTGTGGA,-0.132
4,AGCAGTGA,0.0464
5,AGGGTCGA,0.0733
6,CCTCAAAG,-0.189
7,ATGGTGGA,-0.154
8,CCGTTTAG,0.166
9,AACTGTCT,-0.222
10,ATATGCAG,-0.103
11,GCTGGTCA,-0.156
12,ATTTAGAG,-0.118
13,AAGCGTTA,-0.191
14,CAATTTGC,-0.167
15,GCCCTTCC,0.0959
16,AGTGAGTC,-0.198
17,ACCTCAGT,-0.0847
18,CTCTATAC,-0.104
19,AGCGCTAA,-0.0696
20,ACCGTTTA,0.078
21,AAGTTAAG,-0.136
22,ATTAGTGG,-0.0523
23,TCTAGAAA,-0.115
24,TAATACGA,-0.0843
25,AGACCTAA,-0.216

row,Sequence,PBM E-score
1,CAATCCCC,0.0966
2,AGTCTACA,-0.149
3,CAACTGTG,-0.132
4,AGGGGGCG,-0.088
5,AGTTCAAC,0.109
6,CTCCAACA,-0.124
7,CATACGAC,-0.235
8,ATACTCAA,0.0186
9,CATTAGGC,-0.194
10,CATGCCGA,0.353
11,ATGCAGTG,-0.181
12,AATTCGCT,-0.0479
13,AGCGTGAG,-0.261
14,AGGGCTTA,-0.124
15,ACCTTCCA,-0.101
16,ACGACCTA,-0.0714
17,GATATGAC,0.0541
18,GGACTCCC,0.0915
19,AAATACAG,-0.0672
20,AATGTGGT,-0.159
21,TAACAAGA,-0.0585
22,AATAACCC,0.219
23,CGGACTCA,0.222
24,TATAGATA,-0.132
25,CTGGGTCA,-0.153

row,Sequence,PBM E-score
1,ATTCAACG,-0.0192
2,ATTGTAAA,0.0174
3,ACCTATAC,-0.0823
4,ATGGACTC,-0.0251
5,AGGGGCTA,-0.212
6,CGTCACTC,0.0312
7,TCACGCAA,-0.0837
8,CGTGCCAA,-0.123
9,GAGCTGTA,-0.234
10,GGCGGCAC,0.214
11,CCCTGTTA,0.126
12,AGTGGTGG,-0.201
13,AAATAAAT,0.0711
14,CATGTGCG,-0.0228
15,ACCGTAAC,0.111
16,AGACTAAC,-0.113
17,GGGAGTTA,0.0482
18,CGGACCAA,0.208
19,CGGGTCTC,0.283
20,AACCAGAT,0.0971
21,GTTTCTGA,0.111
22,TGCTCGAA,-0.178
23,ATAGAATG,-0.197
24,CGCGAGCA,-0.193
25,CCCTAAAC,-0.179

row,Sequence,PBM E-score
1,AGTTTTCG,0.152
2,ATACTTAG,-0.0338
3,GGCCTGCA,-0.183
4,GGGGCAAC,-0.255
5,CCCTCATA,-0.293
6,TACCACCA,0.0881
7,ATTTCTGA,-0.319
8,GCATGGGC,-0.153
9,CTAAACGC,0.0223
10,AAGCCCCC,0.00982
11,CCGTTCTC,0.0162
12,AGAGGGTA,-0.297
13,AACTGCTG,-0.148
14,AAATAGGA,-0.0261
15,CGCAGCCG,0.275
16,CACTGACG,-0.226
17,GATAATTA,0.18
18,CGCTCAAA,-0.159
19,TAAGCGGA,0.138
20,CGTTAGCC,0.13
21,ACGCCACT,-0.107
22,CCCAACCC,0.0175

# Source: the supplement of paper PMC3334620
